T1: human FcγRIIA (H131) fused with GST (human, UniProt P12318 34-217)
T1 chain: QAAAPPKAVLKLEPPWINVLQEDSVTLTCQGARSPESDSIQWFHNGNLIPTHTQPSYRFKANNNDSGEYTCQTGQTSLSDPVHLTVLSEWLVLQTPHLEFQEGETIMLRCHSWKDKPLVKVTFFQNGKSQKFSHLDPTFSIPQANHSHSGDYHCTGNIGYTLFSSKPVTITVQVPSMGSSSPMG

T2: human FcγRI fused with GST (human, UniProt P12314 16-292)
T2 chain: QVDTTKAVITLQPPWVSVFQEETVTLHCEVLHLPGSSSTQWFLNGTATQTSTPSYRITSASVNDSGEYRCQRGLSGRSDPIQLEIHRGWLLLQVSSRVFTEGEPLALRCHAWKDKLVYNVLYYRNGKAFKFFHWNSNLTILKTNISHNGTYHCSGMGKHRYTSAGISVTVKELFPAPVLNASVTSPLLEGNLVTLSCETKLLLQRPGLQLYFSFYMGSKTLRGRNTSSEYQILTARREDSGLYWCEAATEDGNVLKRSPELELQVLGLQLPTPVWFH

T3: murine FcγRIV (UniProt A0A0B4J1G0 21-203)
T3 chain: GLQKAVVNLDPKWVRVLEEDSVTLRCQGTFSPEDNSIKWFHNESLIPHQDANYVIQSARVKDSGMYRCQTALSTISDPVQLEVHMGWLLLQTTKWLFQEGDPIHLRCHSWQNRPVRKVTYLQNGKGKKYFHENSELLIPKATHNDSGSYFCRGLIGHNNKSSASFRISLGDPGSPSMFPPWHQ

B1: P8003Z3 (afucosyl variant of P8003Z) (Fc fusion)
chain: [about 120 residues cut from this listing][human IgG1 constant region cut from this listing]GGGSGGGGSGGGGSGGGGSGGGGS[human IgG1 Fc cut from this listing]GGGSGPPGISGPPGDPGLPGKDGDHGKPGIQGQPGPPGICDPSLCFSVIARRDPFRKGPNY
modifications: afucosyl: lacks the core fucose of the N-glycan (produced from a cell line deficient of the alpha-1,6 fucosyltransferase gene, FUT8-/-)
B2: P8003Z1 (Fc fusion)
chain: [about 120 residues cut from this listing][human IgG1 constant region cut from this listing]GGGSGGGGSGGGGSGGGGSGGGGS[human IgG1 Fc cut from this listing]GGGSGPPGISGPPGDPGLPGKDGDHGKPGIQGQPGPPGICDPSLCFSVIARRDPFRKGPNY
B3: P8003Z3 (Fc fusion)
chain: [about 120 residues cut from this listing][human IgG1 constant region cut from this listing]GGGSGGGGSGGGGSGGGGSGGGGS[human IgG1 Fc cut from this listing]GGGSGPPGISGPPGDPGLPGKDGDHGKPGIQGQPGPPGICDPSLCFSVIARRDPFRKGPNY
modifications: afucosyl: lacks the core fucose of the N-glycan (produced from a cell line deficient of the alpha-1,6 fucosyltransferase gene, FUT8-/-)

Legend:
Assay in all cases: ELISA
[1] = target: T1, human FcγRIIA (H131) fused with GST
[2] = target: T2, human FcγRI fused with GST
murine FcγRIV = target: T3, murine FcγRIV
Human FcRIIA[R] = target: Human FcRIIA[R]
Mouse FcRIII = target: Mouse FcRIII
Mouse FcRI = target: Mouse FcRI
Mouse FcRIIB = target: Mouse FcRIIB
Human FcRIII = Human FcRIII (human)
Human FcRn = target: Human FcRn
Human FcRIIB = target: Human FcRIIB

Chain of Human FcRIII (chain, as listed by the source): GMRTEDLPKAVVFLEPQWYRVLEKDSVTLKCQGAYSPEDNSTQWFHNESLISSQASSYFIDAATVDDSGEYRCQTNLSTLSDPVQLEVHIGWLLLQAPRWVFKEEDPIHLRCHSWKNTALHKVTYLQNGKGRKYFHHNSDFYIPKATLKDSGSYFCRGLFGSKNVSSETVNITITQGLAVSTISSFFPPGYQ

| Binder | Kd [1] [nM] | Kd [2] [nM] | Kd (murine FcγRIV) [nM] | Kd (Human FcRIIA[R]) [nM] | Kd (Mouse FcRIII) [nM] | Kd (Mouse FcRI) [nM] | Kd (Mouse FcRIIB) [nM] | Kd (Human FcRIII) [nM] | Kd (Human FcRn) [nM] | Kd (Human FcRIIB) [nM] |
| --- | --- | --- | --- | --- | --- | --- | --- | --- | --- | --- |
| B1 | 0.36 | 0.13 | 0.12 |  |  |  |  |  |  |  |
| B2 | 0.5 | 0.15 | 0.92 | 0.19 | 7.71 | 0.13 | 261 | 2.78 | 0.37 | 2.81 |
| B3 |  |  |  | 0.17 | 17.9 | 0.24 | 84 | 0.17 | 0.43 | 2.45 |

Reference: patent US20190111115A1 (published 2019)
